# Reference: PubChem BioAssay AID686978 (National Center for Advancing Translational Sciences (NCATS), 2013)
# The campaign covered roughly 420,000 compounds. About 64,000 (15%) were called active. The inconclusive results got no clear call from the source; some entries with a clear call stand among them for comparison. Calls come from the whole dose curve; as a rule, active = well fitted inhibition curve with a large enough effect; inconclusive = small, poorly fitted or top-dose-only effect; inactive = flat fitted curve, though single readings scatter. Potencies of inconclusive entries are left out as doubtful fits.
# Assay: qHTS for Inhibitors of human tyrosyl-DNA phosphodiesterase 1 (TDP1): qHTS in cells in absence of CPT; note: nearly all actives have a fitted effect of over 55% in size
# Details: DT40 Tdp1-/- hTDP1 cells, no CPT, ATP luminescence, 48 h; activity change, negative = growth inhibition: at 46.2 µM (top of the series) unless noted
# Procedure, shortened: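 Compound effects on proliferation are scored in DT40 Tdp1-/-;hTDP1 cells in the absence of CPT. ATP levels (CellTiter-Glo luminescence) are recorded after a ≥48 hr, 37 °C incubation.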
# % is set by controls: 0 for no effect and ±100 for the full control effect; potency is the fitted concentration of half-maximal effect; tags give direction and shape of the fitted curve.
Compound,Potency,"activity change, negative = growth inhibition"
O=C(CCS(=O)(=O)c1ccccc1)N(CCCN1CCOCC1)c1nc2c(F)cccc2s1,active: 2.91 µM,
COC(=O)CCC/C=C1/SCC(NC(=O)c2ccccc2)/C1=N/O (stereo unspecified),inactive,
CCOC(=O)c1ccccc1OC(=O)Oc1ccccc1C(=O)OCC,inactive,
O=C(NC(c1ccccc1)c1ccccn1)c1cccc([N+](=O)[O-])c1 (stereo unspecified),"inconclusive [inhibitor, single point]",
O=C(NCc1cccnc1)C(=O)Nc1nc(C23CC4CC(CC(C4)C2)C3)cs1,active: 16.4 µM,
CCSc1nc2ccccc2c(OCc2ccccc2Cl)c1C(=O)OC,"inconclusive [inhibitor, single point]",
Cc1oc(-c2ccccc2Cl)nc1CSCC(=O)NC1CCCC1,inactive,
COc1ccc(NC(=O)c2nc(-c3ccc(C)cc3)n3c2CCCCC3)cc1,active: 16.4 µM,
COc1cccc(C(=O)N(Cc2nc(-c3ccc(Cl)cc3)no2)C(C)C)c1OC,active: 20.6 µM,
CN1Cc2c(N3CCOCC3)nc3sc(C(=O)c4ccccc4)c(N)c3c2CC1(C)C,"inconclusive [inhibitor, single point]",
Cc1ccccc1CNC(=O)C1CCC(=O)N(CC2CCCCC2)C1 (stereo unspecified),inactive,
COc1ccc(Oc2nc3c(c(=O)n(Cc4ccc(Br)cc4)c(=O)n3C)n2C)cc1,"inconclusive [inhibitor, full curve, poor fit]",
COc1ccccc1N1CCN(Cc2cc(=O)oc3cc(C)ccc23)CC1,"inconclusive [inhibitor, single point]",
Cn1c(Cn2nnc3ccccc32)nnc1SCC(=O)NCc1ccc2c(c1)OCO2,inactive,
Clc1ccc(-c2ncc3ccccn23)c(Cl)c1,inactive,
COCC1CCN(C(=O)c2cc(COc3cccc4cnccc34)on2)CC1,active: 4.11 µM,
CCN(C(=O)[C@@H]1CCCN1C(=O)c1cccs1)c1nc2cc(Cl)ccc2s1,"inconclusive [inhibitor, single point]",
COc1ccccc1CNC(=O)COCc1cc(-c2cccs2)on1,"inconclusive [inhibitor, single point]",
Cc1ccc(N(CC(C)C)S(=O)(=O)c2nnc(NC(=O)C(C)C)s2)cc1,"inconclusive [inhibitor, single point]",
O=c1cc(CN2CCN(Cc3ccccc3)CC2)c2cc(O)ccc2o1,"inconclusive [inhibitor, single point]",
COc1cc(C)ccc1OCC(=O)Nc1ccc2c(c1)OCO2,"inconclusive [inhibitor, partial curve]",
C[C@]12CC[C@H](O)CC1=CCC1C2CC[C@@]2(C)C1CCC21OCCO1 (stereo partly specified),"inconclusive [inhibitor, single point]",
CC(C)(C)NC(=S)N1CCC2CC1c1c(Cl)cccc12 (stereo unspecified),"inconclusive [inhibitor, single point]",
COc1ccc(-c2nc(NC(=O)c3cc(C(C)(C)C)nn3C)sc2C)cc1,active: 20.6 µM,

Compound,Potency,"activity change, negative = growth inhibition"
Cc1ccccc1NS(=O)(=O)c1ccc(C(=O)N2CCCCCCC2)cc1,"inconclusive [inhibitor, single point]",
Cc1cc(=O)c2ccc3ccccc3c2[nH]1,"inconclusive [inhibitor, partial curve]",
C=CCOc1ccc(Br)cc1CNC(C)(C)C,inactive,
COCCn1c2nc(=O)n(-c3ccccc3)c(=O)c-2nc2ccccc21,active: 11.6 µM,
Brc1ccc(OCc2ccccc2)c(CNCC2CCCO2)c1 (stereo unspecified),active: 18.4 µM,
Cc1cc2c(cc1C)N(Cc1ccc(Cl)cc1)C1=NCCCN12,active: 5.17 µM,
COc1ccc(C(=O)NCCc2cc3c(OC)ccc(OC)c3[nH]c2=O)cc1OC,"inconclusive [inhibitor, single point]",
CC(C)(C)N(Cc1ccccc1)C(=O)c1ccc(Cl)cc1[N+](=O)[O-],"inconclusive [inhibitor, partial curve]",
CC(C)c1ccccc1-n1c(SCC(=O)N2CCN(c3ccccc3)CC2)nnc1-c1cccnc1,active: 23.1 µM,
Cc1ccccc1C(=O)Nc1cccc(NC(=O)c2cccnc2)c1,inactive,
C1=Cc2ccccc2/C1=C/c1ccc(/C=C2\C=Cc3ccccc32)cc1,inactive,
Cc1ccccc1-n1ccnc1SCC(=O)O,,inconclusive: -33.1% [inhibitor]
CCOC(=O)C1(C)CCCCCN1C(=O)c1ccc(OC)cc1 (stereo unspecified),"inconclusive [inhibitor, single point]",
CCN(C(=O)C1CCN(S(=O)(=O)c2c(C)noc2/C=C/c2ccc(C)cc2)CC1)c1cccc(C)c1,"inconclusive [inhibitor, single point]",
CCOC(=O)c1c(NC(=O)c2nc3n(n2)C(C(F)F)CC(C)N3)sc2c1CCCC2 (stereo unspecified),"inconclusive [inhibitor, single point]",
C=C1CCC[C@]2(C)C[C@H]3OC(=O)C(CN4CC(C)OC(C)C4)[C@H]3C[C@@H]12 (stereo partly specified),"inconclusive [inhibitor, single point]",
COc1ccc(CC(=O)N2CCN(S(=O)(=O)c3ccc(Cl)s3)CC2)cc1,"inconclusive [inhibitor, single point]",
C[C@H](CO)N1C[C@H](C)[C@@H](CN(C)S(=O)(=O)c2ccc(Cl)cc2)Oc2ccc(NS(=O)(=O)c3ccccc3)cc2CC1=O,"inconclusive [inhibitor, single point]",
COc1ccc(N2CC(C(=O)Nc3nc4ccccc4s3)CC2=O)cc1 (stereo unspecified),"inconclusive [inhibitor, single point]",
CN(C(=O)c1cnc(N2CCN(c3ncccn3)CC2)c2ccccc12)c1ccc(Cl)cc1,active: 20.6 µM,
Cn1nc(C(=O)NCCCN2CCCCC2)c2c1-c1ccccc1SC2,"inconclusive [inhibitor, single point]",
Cc1cccc(C)c1NC(=O)CSc1nnc(-c2ccco2)c(-c2ccco2)n1,inactive,
CCOc1ccc(CN(C)C(=O)c2ccc3c(c2)NC(=O)C(C)S3)cc1OC (stereo unspecified),"inconclusive [inhibitor, single point]",
O=C(CCN1CCOCC1)N/N=C/c1cc(Br)cc(Br)c1O,active: 18.4 µM,

Compound,Potency,"activity change, negative = growth inhibition"
O=C(COC(=O)c1ccccc1C(=O)c1ccc(Cl)cc1)NCCc1ccccc1,"inconclusive [inhibitor, single point]",
COc1ccc(CCNC(=O)C2CCCN(c3ncnc4c3nc3n4CCCCC3)C2)c(OC)c1 (stereo unspecified),"inconclusive [inhibitor, single point]",
CC(C)N1CCN(Cc2cccn2-c2ccccn2)CC1CCO (stereo unspecified),inactive,
CCC(=O)N1CCc2cc(S(=O)(=O)NC(Cc3ccccc3)C(=O)O)ccc21 (stereo unspecified),inactive,
CC(=O)Oc1cccc(C2C3=C(CC(C)(C)CC3=O)Nc3ccccc3N2C(C)=O)c1 (stereo unspecified),"inconclusive [inhibitor, partial curve, poor fit]",
C=CCNC(=S)NCC=C,inactive,
COc1ccccc1-c1nccc(NCc2ccccc2)n1,"inconclusive [inhibitor, single point]",
O=C1N(c2ccccc2)C(=Nc2ccccc2)SC12CC2,"inconclusive [inhibitor, partial curve]",
CC(C)(C)NC(=O)C1(C)CCC(=O)N1CC(F)(F)F (stereo unspecified),inactive,
CC(O)C(NS(=O)(=O)c1ccc2ccccc2c1)C(=O)OCC(=O)Nc1ccccc1OC(F)F (stereo unspecified),inactive,
O=C(Nc1nc2ccccc2s1)c1cc(-c2ccco2)nc2ccccc12,active: 18.4 µM,
COc1ccc(CCNC(=O)C(C)n2nc(C)c3sc4ccccc4c3c2=O)c(OC)c1 (stereo unspecified),active: 16.4 µM,
Cc1ccc(S(=O)(=O)Nc2ccc3nc(-c4cccc(Cl)c4)oc3c2)cc1,"inconclusive [inhibitor, single point]",
COc1cc(N/C=C2\CC(=O)NC(C)=C2C#N)cc(OC)c1OC,active: 25.9 µM,
CC[C@@H]1C/C=C\Cc2ccccc2[C@H](C(=O)C[C@@H](O)CC(C)=O)OC1=O,"inconclusive [inhibitor, single point]",
O=C1/C(=C/c2ccccn2)SC(=S)N1Nc1ncc(C(F)(F)F)cc1Cl,"inconclusive [inhibitor, single point]",
CCC(c1nnnn1Cc1ccc(OC)cc1)N(CCCO)Cc1cc2cc3c(cc2[nH]c1=O)OCO3 (stereo unspecified),"inconclusive [inhibitor, partial curve]",
CCCn1c(SCC(=O)Nc2nc(-c3ccc(OC)cc3)cs2)nc2c1c(=O)n(C)c(=O)n2C,"inconclusive [inhibitor, partial curve, poor fit]",
Cc1ccc(S(=O)(=O)/N=C(/Nc2ccccc2C)c2ccccc2)cc1,"inconclusive [inhibitor, partial curve]",
Nc1nsc2ccccc12,active: 2.24 µM,
COc1ccccc1CNC(=O)Cn1cc2c(n1)-c1c(oc(C(=O)N3CCOCC3)c1C)CC2,active: 23.1 µM,
Cc1sc2ncnc(N3CCC(C(=O)N4CC(C)SC4=Nc4ccc(Cl)cc4)CC3)c2c1C (stereo unspecified),"inconclusive [inhibitor, single point]",
Cc1cccc(NC(=O)c2nc(-c3ccccc3)n(-c3ccccc3)n2)c1C,"inconclusive [inhibitor, partial curve, poor fit]",
